# Measurements: the supplement of paper PMC8728848
# The list shows a part of the results.
# B1: FedF (Escherichia coli), Q47212 (protein)
# chain: MRLKYILIIPLLLISLSVFASTLQVDKSVSYDWINSSASSAQVTGTLLGTGKTNTTQMPALYTWQHQIYNVNFIPSSSGTLTCQAGTILVWKNGRETQYALECRVSIHHSSGSINESQWGQQSQVGFGTACGNKKCRFTGFEISLRIPPNAQTYPLSSGDLKGSFSLTNKEVNWSASIYVPAIAKSYRLDTSITLPDTVNLKQNQATPVYYTFSAPSVSNTITGIPNQNDMPSSNVKLTIGPIQSKTTALYVQPDATGSWYDLSKSITMTVVKSSMLNFKGINAKPGNVTLSVPIVFEIQ
# Columns and labels:
# Assay in all cases: glycan array binding signal (z-score within array); higher = stronger binding
# Conditions in all cases: glycan notation: IUPAC condensed, linker removed
# [1] = target: Fuc(a1-2)[GalNAc(a1-3)]Gal(b1-3)GlcNAc(b1-3)GalNAc
# Method in brief: (§1)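 Glycan array data were curated from 3228 arrays in the Consortium for Functional Glycomics database and kept only where the protein sequence was available. Glycan names were converted to IUPAC-condensed notation, and columns mapping to the same glycan were averaged. The binding signal is a within-array Z-score, averaged across arrays of the same protein sequence at different concentrations or buffers and across linkers. Negative Z-scores can be read as non-binding.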
# [2] = target: Fuc(a1-2)[GalNAc(a1-3)]Gal(b1-4)Glc
# Method in brief: as §1
# [3] = target: Fuc(a1-2)[GalNAc(a1-3)]Gal(b1-4)GlcNAc
# Method in brief: as §1
# [4] = target: Fuc(a1-2)[GalNAc(a1-3)]Gal(b1-4)GlcNAc(b1-2)Man(a1-3)[Fuc(a1-2)[GalNAc(a1-3)]Gal(b1-4)GlcNAc(b1-2)Man(a1-6)]Man(b1-4)GlcNAc(b1-4)GlcNAc
# Method in brief: as §1
# [5] = target: Fuc(a1-2)[GalNAc(a1-3)]Gal(b1-4)GlcNAc(b1-2)Man(a1-3)[Fuc(a1-2)[GalNAc(a1-3)]Gal(b1-4)GlcNAc(b1-2)Man(a1-6)]Man(b1-4)GlcNAc(b1-4)[Fuc(a1-6)]GlcNAc
# Method in brief: as §1
# [6] = target: Fuc(a1-2)[GalNAc(a1-3)]Gal(b1-4)GlcNAc(b1-3)Gal(b1-4)GlcNAc
# Method in brief: as §1
# [7] = target: Fuc(a1-2)[GalNAc(a1-3)]Gal(b1-4)GlcNAc(b1-3)Gal(b1-4)GlcNAc(b1-3)Gal(b1-4)GlcNAc
# Method in brief: as §1
# [8] = target: Fuc(a1-2)[GalNAc(a1-3)]Gal(b1-4)GlcNAc(b1-3)GalNAc
# Method in brief: as §1
# [9] = target: Fuc(a1-2)[GalNAc(a1-3)]Gal(b1-4)[Fuc(a1-3)]GlcNAc
# Method in brief: as §1
# [10] = target: Fuc(a1-2)[GalNAc(a1-3)]Gal(b1-4)[Fuc(a1-3)]GlcNAc(b1-3)GalNAc
# Method in brief: as §1
# [11] = target: Fuc(a1-2)[GalNAc(a1-4)]Gal(b1-4)GlcNAc
# Method in brief: as §1
# [12] = target: Fuc(a1-2)[GalNAc(b1-3)]Gal
# Method in brief: as §1
# Fuc(a1-3)GlcNAc = target: Fuc(a1-3)GlcNAc
# Method in brief: as §1
# [13] = target: Fuc(a1-3)[Gal(b1-4)]Glc6S
# Method in brief: as §1
# [14] = target: Fuc(a1-3)[Gal(b1-4)]GlcNAc
# Method in brief: as §1
# [15] = target: Fuc(a1-3)[Gal(b1-4)]GlcNAc(b1-2)Man(a1-3)[Fuc(a1-3)[Gal(b1-4)]GlcNAc(b1-2)Man(a1-6)]Man(b1-4)GlcNAc(b1-4)GlcNAc
# Method in brief: as §1
# [16] = target: Fuc(a1-3)[Gal(b1-4)]GlcNAc(b1-2)Man(a1-3)[Fuc(a1-3)[Gal(b1-4)]GlcNAc(b1-2)Man(a1-6)]Man(b1-4)GlcNAc(b1-4)[Fuc(a1-6)]GlcNAc
# Method in brief: as §1
# [17] = target: Fuc(a1-3)[Gal(b1-4)]GlcNAc(b1-3)Gal(b1-3)[Fuc(a1-4)]GlcNAc
# Method in brief: as §1
# [18] = target: Fuc(a1-3)[Gal(b1-4)]GlcNAc(b1-3)GalNAc
# Method in brief: as §1
# [19] = target: Fuc(a1-3)[Gal(b1-4)]GlcNAc(b1-4)Gal(b1-4)[Fuc(a1-3)]GlcNAc
# Method in brief: as §1
# [20] = target: Fuc(a1-3)[Gal(b1-4)]GlcNAc(b1-4)Gal(b1-4)[Fuc(a1-3)]GlcNAc(b1-4)Gal(b1-4)[Fuc(a1-3)]GlcNAc
# Method in brief: as §1
# [21] = target: Fuc(a1-3)[Gal(b1-4)]GlcNAc(b1-6)GalNAc
# Method in brief: as §1
# [22] = target: Fuc(a1-3)[Gal(b1-4)]GlcNAc(b1-6)[Gal(b1-3)GlcNAc(b1-3)]Gal(b1-4)Glc
# Method in brief: as §1
# [23] = target: Fuc(a1-3)[Gal(b1-4)]GlcNAc(b1-6)[Neu5Ac(a2-3)Gal(b1-3)]GalNAc
# Method in brief: as §1
# [24] = target: Fuc(a1-3)[Gal(b1-4)]GlcNAc6S
# Method in brief: as §1
# [25] = target: Fuc(a1-3)[Gal3S(b1-4)]GlcNAc
# Method in brief: as §1
# [26] = target: Fuc(a1-3)[Gal3S(b1-4)]GlcNAc6S
# Method in brief: as §1
# [27] = target: Fuc(a1-3)[GalNAc(b1-4)]GlcNAc
# Method in brief: as §1
# Fuc(a1-4)GlcNAc = target: Fuc(a1-4)GlcNAc
# Method in brief: as §1
# Fuc(b1-3)GlcNAc = target: Fuc(b1-3)GlcNAc
# Method in brief: as §1
# Gal(a1-2)Gal = target: Gal(a1-2)Gal
# Method in brief: as §1
# Gal(a1-3)Gal = target: Gal(a1-3)Gal
# Method in brief: as §1
# Gal(a1-3)Gal(b1-3)GlcNAc = target: Gal(a1-3)Gal(b1-3)GlcNAc
# Method in brief: as §1
# [28] = target: Gal(a1-3)Gal(b1-3)GlcNAc(b1-2)Man(a1-3)[Gal(a1-3)Gal(b1-3)GlcNAc(b1-2)Man(a1-6)]Man(b1-4)GlcNAc(b1-4)GlcNAc
# Method in brief: as §1
# [29] = target: Gal(a1-3)Gal(b1-3)GlcNAc(b1-3)GalNAc
# Method in brief: as §1
# [30] = target: Gal(a1-3)Gal(b1-3)[Fuc(a1-4)]GlcNAc(b1-2)Man(a1-3)[Gal(a1-3)Gal(b1-3)[Fuc(a1-4)]GlcNAc(b1-2)Man(a1-6)]Man(b1-4)GlcNAc(b1-4)GlcNAc
# Method in brief: as §1
# Gal(a1-3)Gal(b1-4)Glc = target: Gal(a1-3)Gal(b1-4)Glc
# Method in brief: as §1
# Gal(a1-3)Gal(b1-4)GlcNAc = target: Gal(a1-3)Gal(b1-4)GlcNAc
# Method in brief: as §1
# [31] = target: Gal(a1-3)Gal(b1-4)GlcNAc(b1-3)GalNAc
# Method in brief: as §1
# [32] = target: Gal(a1-3)Gal(b1-4)[Fuc(a1-3)]GlcNAc
# Method in brief: as §1
# [33] = target: Gal(a1-3)Gal(b1-4)[Fuc(a1-3)]GlcNAc(b1-2)Man(a1-3)[Gal(a1-3)Gal(b1-4)[Fuc(a1-3)]GlcNAc(b1-2)Man(a1-6)]Man(b1-4)GlcNAc(b1-4)GlcNAc
# Method in brief: as §1
# Gal(a1-3)GalNAc = target: Gal(a1-3)GalNAc
# Method in brief: as §1
# [34] = target: Gal(a1-3)[Gal(a1-4)]Gal(b1-4)GlcNAc
# Method in brief: as §1
# [35] = target: Gal(a1-4)Gal(b1-3)GlcNAc(b1-2)Man(a1-3)[Gal(a1-4)Gal(b1-3)GlcNAc(b1-2)Man(a1-6)]Man(b1-4)GlcNAc(b1-4)GlcNAc
# Method in brief: as §1
# Gal(a1-4)Gal(b1-4)Glc = target: Gal(a1-4)Gal(b1-4)Glc
# Method in brief: as §1
# Gal(a1-4)Gal(b1-4)GlcNAc = target: Gal(a1-4)Gal(b1-4)GlcNAc
# Method in brief: as §1
# [36] = target: Gal(a1-4)Gal(b1-4)GlcNAc(b1-2)Man(a1-3)[Gal(a1-4)Gal(b1-4)GlcNAc(b1-2)Man(a1-6)]Man(b1-4)GlcNAc(b1-4)GlcNAc
# Method in brief: as §1
# [37] = target: Gal(a1-4)Gal(b1-4)GlcNAc(b1-3)Gal(b1-4)Glc
# Method in brief: as §1
# Gal(a1-4)GlcNAc = target: Gal(a1-4)GlcNAc
# Method in brief: as §1
# Gal(a1-6)Glc = target: Gal(a1-6)Glc
# Method in brief: as §1
# Gal(b1-2)Gal = target: Gal(b1-2)Gal
# Method in brief: as §1
# Gal(b1-3)Gal = target: Gal(b1-3)Gal
# Method in brief: as §1
# Gal(b1-3)Gal(b1-4)GlcNAc = target: Gal(b1-3)Gal(b1-4)GlcNAc
# Method in brief: as §1
# [38] = target: Gal(b1-3)Gal(b1-4)GlcNAc(b1-2)Man(a1-3)[Gal(b1-3)Gal(b1-4)GlcNAc(b1-2)Man(a1-6)]Man(b1-4)GlcNAc(b1-4)GlcNAc
# Method in brief: as §1
# Gal(b1-3)GalNAc = target: Gal(b1-3)GalNAc
# Method in brief: as §1
# [39] = target: Gal(b1-3)GalNAc(a1-3)[Fuc(a1-2)]Gal(b1-4)Glc
# Method in brief: as §1
# [40] = target: Gal(b1-3)GalNAc(a1-3)[Fuc(a1-2)]Gal(b1-4)GlcNAc
# Method in brief: as §1
# [41] = target: Gal(b1-3)GalNAc(b1-3)Gal(a1-4)Gal(b1-4)Glc
# Method in brief: as §1
# [42] = target: Gal(b1-3)GalNAc(b1-4)Gal(b1-4)Glc
# Method in brief: as §1
# [43] = target: Gal(b1-3)GalNAc(b1-4)[Neu5Ac(a2-3)]Gal(b1-4)Glc
# Method in brief: as §1
binder,measurement,setting,value
B1,glycan array binding signal (z-score),[1],0.165
same,glycan array binding signal (z-score),[2],-0.189
same,glycan array binding signal (z-score),[3],-0.131
same,glycan array binding signal (z-score),[4],0.386
same,glycan array binding signal (z-score),[5],-0.114
same,glycan array binding signal (z-score),[6],-0.209
same,glycan array binding signal (z-score),[7],0.492
same,glycan array binding signal (z-score),[8],-0.148
same,glycan array binding signal (z-score),[9],-0.311
same,glycan array binding signal (z-score),[10],0.093
same,glycan array binding signal (z-score),[11],0.358
same,glycan array binding signal (z-score),[12],-0.104
same,glycan array binding signal (z-score),Fuc(a1-3)GlcNAc,-0.241
same,glycan array binding signal (z-score),[13],-0.094
same,glycan array binding signal (z-score),[14],-0.361
same,glycan array binding signal (z-score),[15],-0.084
same,glycan array binding signal (z-score),[16],-0.17
same,glycan array binding signal (z-score),[17],-0.053
same,glycan array binding signal (z-score),[18],0.025
same,glycan array binding signal (z-score),[19],-0.225
same,glycan array binding signal (z-score),[20],0.399
same,glycan array binding signal (z-score),[21],-0.079
same,glycan array binding signal (z-score),[22],-0.163
same,glycan array binding signal (z-score),[23],-0.14
same,glycan array binding signal (z-score),[24],-0.156
same,glycan array binding signal (z-score),[25],-0.305
same,glycan array binding signal (z-score),[26],-0.194
same,glycan array binding signal (z-score),[27],-0.44
same,glycan array binding signal (z-score),Fuc(a1-4)GlcNAc,-0.398
same,glycan array binding signal (z-score),Fuc(b1-3)GlcNAc,-0.307
same,glycan array binding signal (z-score),Gal(a1-2)Gal,-0.343
same,glycan array binding signal (z-score),Gal(a1-3)Gal,-0.304
same,glycan array binding signal (z-score),Gal(a1-3)Gal(b1-3)GlcNAc,-0.269
same,glycan array binding signal (z-score),[28],-0.111
same,glycan array binding signal (z-score),[29],0.095
same,glycan array binding signal (z-score),[30],-0.162
same,glycan array binding signal (z-score),Gal(a1-3)Gal(b1-4)Glc,0.097
same,glycan array binding signal (z-score),Gal(a1-3)Gal(b1-4)GlcNAc,0.095
same,glycan array binding signal (z-score),[31],-0.17
same,glycan array binding signal (z-score),[32],-0.432
same,glycan array binding signal (z-score),[33],-0.084
same,glycan array binding signal (z-score),Gal(a1-3)GalNAc,-0.219
same,glycan array binding signal (z-score),[34],-0.385
same,glycan array binding signal (z-score),[35],-0.191
same,glycan array binding signal (z-score),Gal(a1-4)Gal(b1-4)Glc,0.091
same,glycan array binding signal (z-score),Gal(a1-4)Gal(b1-4)GlcNAc,-0.257
same,glycan array binding signal (z-score),[36],0.264
same,glycan array binding signal (z-score),[37],-0.146
same,glycan array binding signal (z-score),Gal(a1-4)GlcNAc,-0.22
same,glycan array binding signal (z-score),Gal(a1-6)Glc,0.241
same,glycan array binding signal (z-score),Gal(b1-2)Gal,-0.264
same,glycan array binding signal (z-score),Gal(b1-3)Gal,0.09
same,glycan array binding signal (z-score),Gal(b1-3)Gal(b1-4)GlcNAc,-0.144
same,glycan array binding signal (z-score),[38],-0.118
same,glycan array binding signal (z-score),Gal(b1-3)GalNAc,-0.092
same,glycan array binding signal (z-score),[39],-0.185
same,glycan array binding signal (z-score),[40],-0.088
same,glycan array binding signal (z-score),[41],-0.187
same,glycan array binding signal (z-score),[42],-0.415
same,glycan array binding signal (z-score),[43],-0.287
